Inconclusive means that the source gave no clear call. Such entries were picked first, then a sample of the others. For some assays here: Potencies beside an inconclusive call are fits to weak or partial responses and may not hold up. The source made the active and inactive calls. Calls come from the whole dose curve; as a rule, active = well fitted curve in the direction sought with a large enough effect; inconclusive = small, poorly fitted or top-dose-only effect, or another doubt; inactive = no such curve, though single readings can be large; an effect the other way counts as inactive or inconclusive.
assay: MultiTox-Fluor Cytotoxicity Assay - LYMP1-002 - Dead Cells (AID 960); details: LYMP1-002 lymphoblastoid cells, dead-cell protease fluorescence; cytotoxicity (dead cells): at 46.1 µM (top of the series); note: nearly all actives have a fitted effect of over 60% in size;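 for cytotoxicity (dead cells): 0% = DMSO and 100% = tetraoctylammonium bromide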
In short: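 Human lymphoblastoid cells (LYMP1-002), 2500/well in complete medium, were exposed to compounds for 16 hr at 37 C. Dead-cell protease activity was read as bis-AAF-R110 fluorescence (Ex/Em 485/520), normalized to DMSO and 15 uM tetraoctylammonium bromide; AC50 from Hill fits.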
Potency is the fitted concentration of half-maximal effect; tags give direction and shape of the fitted curve.

Structure (SMILES) | Potency | cytotoxicity (dead cells)
c1cc(OCC2CO2)cc(OCC2CO2)c1 (stereo unspecified) | active: 25.1 µM | 
O=C(Cl)c1ccccc1F |  | inactive: 10.2%
CC/C(=C(\c1ccccc1)c1ccc(OCCN(C)C)cc1)c1ccc(O)cc1 | active: 31.6 µM | 

assay: Cell Viability - LYMP2-005 (AID 967); details: LYMP2-005 lymphoblastoid cell viability; series mostly up to 92.2 µM; activity change, negative = viability loss: at the top concentration;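 for activity change, negative = viability loss: plate controls were DMSO only for no effect and 92 µM tetraoctylammonium bromide control for full effect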
In short: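 CellTiter-Glo luminescence (cellular ATP) read-out; LYMP2-005 lymphoblastoid cells, 2500/well, 5 h pre-incubation, then 24 h compound exposure at 37 C in complete medium. Tetraoctylammonium bromide positive control; AC50 by standard Hill fit.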

Structure (SMILES) | Potency | activity change, negative = viability loss
c1cc(OCC2CO2)cc(OCC2CO2)c1 (stereo unspecified) | inconclusive: 15.8 µM [cytotoxic, full curve, poor fit] | 
CC(C)(C)OO | inconclusive: 79.4 µM [rising, single point] | 
Nc1cccc(Cl)c1 | inconclusive: 79.4 µM [rising, single point] | 
CC/C(=C(\c1ccccc1)c1ccc(OCCN(C)C)cc1)c1ccc(O)cc1 | active: 50.1 µM | 
CC(C)[N+](=O)[O-] |  | inactive: 25.6%
C=CC(=O)OCC(CO)(COC(=O)C=C)COC(=O)C=C | active: 2.51 µM | 

assay: Cell Viability - LYMP2-009 (AID 968); details: LYMP2-009 lymphoblastoid cell viability; series mostly up to 92.2 µM; activity change, negative = viability loss: at the top concentration; note: nearly all actives have a fitted effect of over 55% in size;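 for activity change, negative = viability loss: 0% = DMSO alone and the full-kill end = tetraoctylammonium bromide at 92 µM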

Structure (SMILES) | Potency | activity change, negative = viability loss
CC/C(=C(\c1ccccc1)c1ccc(OCCN(C)C)cc1)c1ccc(O)cc1 | inconclusive: 50.1 µM [cytotoxic, partial curve, poor fit] | 
CC(C)[N+](=O)[O-] |  | inactive: -0.0962%
C=CC(=O)OCC(CO)(COC(=O)C=C)COC(=O)C=C | inconclusive: 2.51 µM [cytotoxic, full curve, poor fit] | 

assay: Cell Viability - LYMP2-011 (AID 969); details: LYMP2-011 lymphoblastoid cells viability; viability change, negative = cytotoxic: at 92.2 µM (top of the series); note: nearly all actives have a fitted effect of over 60% in size;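 for viability change, negative = cytotoxic: 0% = DMSO only and full inhibition = 92 µM tetraoctylammonium bromide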
In short: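 Human lymphoblastoid cells (2500/well) were plated in complete medium, preincubated 5 hr at 37 C, then exposed to compounds for 24 hr at 37 C. Intracellular ATP was read by CellTiter-Glo luminescence, and AC50 came from Hill-equation concentration-response fits.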

Structure (SMILES) | viability change, negative = cytotoxic | Potency
C#CCO | inactive: -2.5% | 
O=[N+]([O-])c1cc(Cl)c(Cl)c(Cl)c1 | inactive: -9.31% | 
CC/C(=C(\c1ccccc1)c1ccc(OCCN(C)C)cc1)c1ccc(O)cc1 |  | inconclusive: 50.1 µM [cytotoxic, partial curve, poor fit]
C=CC(=O)OCC(CO)(COC(=O)C=C)COC(=O)C=C |  | active: 5.01 µM

assay: Cell Viability - LYMP2-013 (AID 970); details: LYMP2-013 lymphoblastoid cells viability; activity change, negative = cytotoxic: at 92.2 µM (top of the series); note: nearly all actives have a fitted effect of over 55% in size;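 for activity change, negative = cytotoxic: 0% = DMSO only and full inhibition = tetraoctylammonium bromide control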
In short: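 Human lymphoblastoid cells, 2500/well, were preincubated 5 hr at 37 C, then treated with compounds for 24 hr at 37 C in complete medium. Intracellular ATP was read by CellTiter-Glo luminescence; AC50 from Hill-equation fits of concentration-response data.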

Structure (SMILES) | Potency | activity change, negative = cytotoxic
c1cc(OCC2CO2)cc(OCC2CO2)c1 (stereo unspecified) | active: 50.1 µM | 
CCN(CC)CCO |  | inactive: -7.98%
O=C(Cl)c1ccccc1F |  | inactive: -20.7%
CC/C(=C(\c1ccccc1)c1ccc(OCCN(C)C)cc1)c1ccc(O)cc1 | active: 50.1 µM | 

assay: Cell Viability - LYMP2-002 (AID 977); details: LYMP2-002 lymphoblastoid cell viability, qHTS; activity change, negative = cytotoxic: at 92.2 µM (top of the series);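 for activity change, negative = cytotoxic: plate controls were DMSO only for no effect and 92 µM tetraoctylammonium bromide for full effect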
In short: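 Human lymphoblastoid LYMP2-002 cells, 2500 per well, exposed to compounds for 24 h at 37 C in complete medium; viability read as intracellular ATP by CellTiter-Glo luminescence, AC50 from Hill fits.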

Structure (SMILES) | Potency | activity change, negative = cytotoxic
CC/C(=C(\c1ccccc1)c1ccc(OCCN(C)C)cc1)c1ccc(O)cc1 | active: 50.1 µM | 
CCCC[N+](=O)[O-] |  | inactive: 9.76%
C=CC(=O)OCC(CO)(COC(=O)C=C)COC(=O)C=C | inconclusive: 5.01 µM [cytotoxic, full curve] | 

assay: Cell Viability - LYMP2-014 (AID 983); details: LYMP2-014 lymphoblastoid cells, viability qHTS; activity change, negative = cytotoxicity: at 92.2 µM (top of the series); note: nearly all actives have a fitted effect of over 50% in size;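 for activity change, negative = cytotoxicity: plate controls were DMSO only for no effect and 92 µM tetraoctylammonium bromide for full effect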
In short: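 Human lymphoblastoid cells (2500/well) were pre-incubated 5 hr at 37 C, then exposed to compounds in complete medium for 24 hr at 37 C. Intracellular ATP was read by CellTiter-Glo luminescence after 30 min at room temperature; AC50 from Hill fits.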

Structure (SMILES) | Potency | activity change, negative = cytotoxicity
c1cc(OCC2CO2)cc(OCC2CO2)c1 (stereo unspecified) | active: 39.8 µM | 
CC/C(=C(\c1ccccc1)c1ccc(OCCN(C)C)cc1)c1ccc(O)cc1 | inconclusive: 50.1 µM [cytotoxic, partial curve, poor fit] | 
O=S(=O)(Cl)c1ccccc1 |  | inactive: 1.01%

Reference: PubChem BioAssay (NCATS)
